Reference: US20260034244A1 (PANOLOS BIOSCIENCE, published 2026)

T1: VEGF-A (UniProt P15692-4 27-191, limits assumed)
T1 construct: also called vascular endothelial growth factor A
T1 sequence (looked up): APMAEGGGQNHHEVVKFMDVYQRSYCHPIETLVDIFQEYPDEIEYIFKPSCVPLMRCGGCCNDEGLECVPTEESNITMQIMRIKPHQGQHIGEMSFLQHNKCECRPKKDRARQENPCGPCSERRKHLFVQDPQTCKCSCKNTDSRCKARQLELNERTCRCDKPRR

T2: PLGF (UniProt P49763-2 19-149, limits assumed)
T2 construct: also called placental growth factor
T2 sequence (looked up): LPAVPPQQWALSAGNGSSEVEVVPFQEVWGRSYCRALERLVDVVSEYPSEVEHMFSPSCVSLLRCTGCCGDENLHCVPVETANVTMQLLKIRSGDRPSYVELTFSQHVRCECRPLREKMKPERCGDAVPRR

T3: VEGF-A (UniProt P15692-4 27-191, limits assumed)
T3 construct: also called vascular endothelial growth factor A
T3 sequence (looked up): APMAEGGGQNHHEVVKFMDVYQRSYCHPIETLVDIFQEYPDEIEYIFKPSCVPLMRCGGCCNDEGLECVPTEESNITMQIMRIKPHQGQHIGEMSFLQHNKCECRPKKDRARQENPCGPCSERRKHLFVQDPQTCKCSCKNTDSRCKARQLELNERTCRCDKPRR

T4: PLGF (UniProt P49763-2 19-149, limits assumed)
T4 construct: also called placental growth factor
T4 sequence (looked up): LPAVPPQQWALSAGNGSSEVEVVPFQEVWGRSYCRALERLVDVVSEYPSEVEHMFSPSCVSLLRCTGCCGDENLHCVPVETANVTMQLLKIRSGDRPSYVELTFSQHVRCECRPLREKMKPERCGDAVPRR

B1: C97 (Fc fusion)
chain: EFGRPFVEMYSEIPEIIHMTEGRELVIPCRVTSPNITVTLKKFPLDTLIPDGKRIIWDSRKGFIISNATYKEIGLLTCEATVNGHLYKTNYLTHRQTNTIIDVQISTPRPVKLSVGHTLVLNCTATTPLNTRVQMTWSYPDEKNKRASVRRRIDQSNSHANIFYSVLTIDKMQNKDKGLYTCRVRSGPSFKSVNTSVHIYDLE[gap - human IgG1 Fc]
notes: Based on C88; L243S/R244V; IgG1 Fc
B2: C99 (Fc fusion)
chain: EFGRPFVEMYSEIPEIIHMTEGRELVIPCRVTSPNITVTLKKFPLDTLIPDGKRIIWDSRKGFIISNATYKEIGLLTCEATVNGHLYKTNYLTHRQTNTIIDVQISTPRPVKLLRGHTLVLNCTATTPANTRVQMTWSYPDEKNKRASVRRRIDQSNSHANIFYSVLTIDKMQNKDKGLYTCRVRSGPSFKSVNTSVHIYDLE[gap - human IgG1 Fc]
notes: Based on C88; L258A; IgG1 Fc
B3: C106 (Fc fusion)
chain: EFGRPFVEMYSEIPEIIHMTEGRELVIPCRVTSPNITVTLKKFPLDTLIPDGKRIIWDSRKGFIISNATYKEIGLLTCEATVNGHLYKTNYLTHRQTNTIIDVQISTPRPVELSVGETLVLNCTATTPANTRVQMTWSYPDEKNKRASVRRRIDQSNSHANIFYSVLTIDGMQNKDKGLYTCRVRSGPSFKSVNTSVHIYDLE[gap - human IgG1 Fc]
notes: Based on C88; K241E/L243S/R244V/H246E/L258A/K300G; IgG1 Fc
B4: C103 (Fc fusion)
chain: EFGRPFVEMYSEIPEIIHMTEGRELVIPCRVTSPNITVTLKKFPLDTLIPDGKRIIWDSRKGFIISNATYKEIGLLTCEATVNGHLYKTNYLTHRQTNTIIDVQISTPRPVKLLRGHTLVLNCTATTPANTRVQMTWSYPDEKNKRASVRRRIDQSNSHANIFYSVLTIDGMTNSDQGLYTCRVRSGPSFKSVNTSVHIYDLE[gap - human IgG1 Fc]
notes: Based on C88; L258A/K300G/Q302T/K304S/K306Q; IgG1 Fc
B5: C105 (Fc fusion)
chain: EFGRPFVEMYSEIPEIIHMTEGRELVIPCRVTSPNITVTLKKFPLDTLIPDGKRIIWDSRKGFIISNATYKEIGLLTCEATVNGHLYKTNYLTHRQTNTIIDVQISTPRPVELSVGETLVLNCTATTPANTRVQMTWSYPDEKNKRASVRRRIDQSNSHANIFYSVLTIDGMTNSDQGLYTCRVRSGPSFKSVNTSVHIYDLE[gap - human IgG1 Fc]
notes: Based on C88; K241E/L243S/R244V/H246E/L258A/K300G/Q302T/K304S/K306Q; IgG1 Fc
B6: C81 (Fc fusion)
chain: EFGRPFVEMYSEIPEIIHMTEGRELVIPCRVTSPNITVTLKKFPLDTLIPDGKRIIWDSRKGFIISNATYKEIGLLTCEATVNGHLYKTNYLTHRQTNTIIDVQISTPSPVTLCRGHTLVLNCTATTPANTRVQMTWSYPDEKNKNASVRRRIDQSNSHANIFYSVLTIDGMTNSDQGLYTCRVRSGPSFKSVNTSVHIYDCGSSGGSSGEPKS[gap - human IgG1 Fc and a few adjoining residues]
notes: Based on VEGF-Grab3; L258A/K300G/Q302T/K304S/K306Q
B7: C87 (Fc fusion)
chain: EFGRPFVEMYSEIPEIIHMTEGRELVIPCRVTSPNITVTLKKFPLDTLIPDGKRIIWDSRKGFIISNATYKEIGLLTCEATVNGHLYKTNYLTHRQTNTIIDVQISTPSPVTLCRGHTLVLNCTATTPDNTRVQMTWSYPDEKNKNASVRRRIDQSNSHANIFYSVLTIDGMTNSDQGLYTCRVRSGPSFKSVNTSVHIYDCGSSGGSSGEPKS[gap - human IgG1 Fc and a few adjoining residues]
notes: Based on VEGF-Grab3; L258D/K300G/Q302T/K304S/K306Q
B8: C82 (Fc fusion)
chain: EFGRPFVEMYSEIPEIIHMTEGRELVIPCRVTSPNITVTLKKFPLDTLIPDGKRIIWDSRKGFIISNATYKEIGLLTCEATVNGHLYKTNYLTHRQTNTIIDVQISTPSPVTLCRGHTLVLNCTATTPDNTRVQMTWSYPDEKNKNASVRRRIDQSNSHANIFYSVLTIDGMTNSDQGLYTCRVRSGPSFKSVNTSVHIYDCSSGDATPTS[gap - human IgG1 Fc with changes]
notes: as for B7

Columns and labels:
VEGF-A [1] = target: T1, VEGF-A; experiment: BLI Octet; fold increase vs C88
PLGF [2] = target: T2, PLGF; experiment: BLI Octet RED96e, AHC capture
VEGF-A [3] = target: T1, VEGF-A; experiment: BLI Octet RED96e, AHC capture
PLGF [4] = target: T2, PLGF; experiment: BLI Octet; fold increase vs C88
VEGF-A [5] = target: T3, VEGF-A; experiment: BLI (Octet, AHC sensor); fold increase vs VEGF-Grab3 (Samsung Biologics)
PLGF [6] = target: T4, PLGF; experiment: as above
VEGF-A [7] = target: T3, VEGF-A; experiment: BLI (Octet, AHC sensor); fold increase vs VEGF-Grab3 (Panolos Bioscience)
PLGF [8] = target: T4, PLGF; experiment: as above
VEGF-A [9] = target: VEGF-A (UniProt P15692); experiment: cell-based or functional assay

Binder | Fold (kdis) (VEGF-A [1]) | Fold (kon) (VEGF-A [1]) | Kd (PLGF [2]) | koff (PLGF [2]) | kon (PLGF [2]) | koff (VEGF-A [3]) | kon (VEGF-A [3]) | Fold (KD) (PLGF [4]) | Fold (kdis) (PLGF [4]) | Fold (kon) (PLGF [4]) | Fold (KD) (VEGF-A [1]) | Fold (KD) (VEGF-A [5]) | Fold (kdis) (VEGF-A [5]) | Fold (kon) (VEGF-A [5]) | Fold (KD) (PLGF [6]) | Fold (kdis) (PLGF [6]) | Fold (kon) (PLGF [6]) | Fold (KD) (VEGF-A [7]) | Fold (kdis) (VEGF-A [7]) | Fold (kon) (VEGF-A [7]) | other results
B1 | 20.9 fold | 0.49 fold | 0.152 nM | 0.000195 s⁻¹ | 1.28e+06 M⁻¹ s⁻¹ | 1.68e-06 s⁻¹ | 281000 M⁻¹ s⁻¹ | 1.35 fold | 1.28 fold | 1.06 fold | – | – | – | – | – | – | – | – | – | – | Kd (VEGF-A [3]): 0.006 nM
B2 | > 100 fold | 0.45 fold | 0.376 nM | 0.000511 s⁻¹ | 1.36e+06 M⁻¹ s⁻¹ | < 1e-07 s⁻¹ | 261000 M⁻¹ s⁻¹ | 0.54 fold | 0.49 fold | 1.12 fold | > 60.9 fold | – | – | – | – | – | – | – | – | – | –
B3 | > 100 fold | 0.44 fold | 0.245 nM | 0.000564 s⁻¹ | 2.31e+06 M⁻¹ s⁻¹ | < 1e-07 s⁻¹ | 257000 M⁻¹ s⁻¹ | 0.84 fold | 0.44 fold | 1.9 fold | > 60.9 fold | – | – | – | – | – | – | – | – | – | –
B4 | 0.49 fold | 0.5 fold | 0.161 nM | 0.000355 s⁻¹ | 2.21e+06 M⁻¹ s⁻¹ | 7.15e-05 s⁻¹ | 288000 M⁻¹ s⁻¹ | 1.27 fold | 0.7 fold | 1.82 fold | 0.24 fold | – | – | – | – | – | – | – | – | – | Kd (VEGF-A [3]): 0.249 nM
B5 | > 100 fold | 0.46 fold | 0.27 nM | 0.000475 s⁻¹ | 1.76e+06 M⁻¹ s⁻¹ | < 1e-07 s⁻¹ | 267000 M⁻¹ s⁻¹ | 0.76 fold | 0.52 fold | 1.45 fold | > 60.9 fold | – | – | – | – | – | – | – | – | – | –
B6 | – | – | – | – | – | – | – | – | – | – | – | < 0.01 fold | 0.01 fold | 0.8 fold | 12 fold | 9.41 fold | 1.27 fold | 1.12 fold | 0.77 fold | 1.44 fold | Fold (KD) (PLGF [8]): 8.77 fold; Fold (kdis) (PLGF [8]): 8.51 fold; Fold (kon) (PLGF [8]): 1.03 fold; IC50 (µg/ml), luciferase reporter, KDR/NFAT-RE HEK293 cells (VEGF-A [9]): 0.00268 µg/mL
B7 | – | – | – | – | – | – | – | – | – | – | – | 0.52 fold | 1 fold | 0.52 fold | 0.88 fold | 0.5 fold | 1.76 fold | > 100 fold | > 100 fold | 0.93 fold | Fold (KD) (PLGF [8]): 0.64 fold; Fold (kdis) (PLGF [8]): 0.45 fold; Fold (kon) (PLGF [8]): 1.42 fold; IC50 (µg/ml), luciferase reporter, KDR/NFAT-RE HEK293 cells (VEGF-A [9]): 0.0181 µg/mL
B8 | – | – | – | – | – | – | – | – | – | – | – | 0.01 fold | 0.01 fold | 0.78 fold | 1.25 fold | 0.82 fold | 1.52 fold | 1.53 fold | 1.09 fold | 1.4 fold | Fold (KD) (PLGF [8]): 0.91 fold; Fold (kdis) (PLGF [8]): 0.74 fold; Fold (kon) (PLGF [8]): 1.23 fold; IC50 (µg/ml), luciferase reporter, KDR/NFAT-RE HEK293 cells (VEGF-A [9]): 0.0217 µg/mL
